Experimental data as given in PubChem BioAssay AID485294 (National Center for Advancing Translational Sciences (NCATS), 2010).
The whole screen tested about 370,000 compounds, of which about 150 (0.041%) were called active. The inconclusive results got no clear call from the source; some entries with a clear call stand among them for comparison. Calls follow the shape of the dose curve; as a rule, active = well fitted inhibition curve with a large enough effect; inconclusive = small, poorly fitted or top-dose-only effect; inactive = flat fitted curve, though single readings scatter. Potencies of inconclusive entries are left out as doubtful fits.

Molecular target: Beta-lactamase (Escherichia coli (strain K12)) (UniProt P00811)
UniProt P00811, sequence (P00811 whole entry, looked up): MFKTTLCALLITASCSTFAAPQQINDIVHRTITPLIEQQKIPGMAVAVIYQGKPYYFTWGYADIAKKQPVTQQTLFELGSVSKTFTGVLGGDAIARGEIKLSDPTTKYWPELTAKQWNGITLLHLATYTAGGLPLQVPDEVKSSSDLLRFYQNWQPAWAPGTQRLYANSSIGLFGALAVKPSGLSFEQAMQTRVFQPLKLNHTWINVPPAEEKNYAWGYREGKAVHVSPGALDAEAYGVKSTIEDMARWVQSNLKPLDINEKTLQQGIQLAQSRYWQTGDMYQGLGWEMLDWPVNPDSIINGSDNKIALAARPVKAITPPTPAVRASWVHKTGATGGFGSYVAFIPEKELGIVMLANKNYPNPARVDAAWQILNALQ
Experiment: qHTS Inhibitors of AmpC Beta-Lactamase (assay with detergent); also: nearly all actives have a fitted effect of over 25% in size;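 as to activity change, negative = inhibition: 0% = no-compound wells and -100% = no-enzyme wells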
Conditions: AmpC hydrolysis of nitrocefin, absorbance 480 nm, 0.01% Triton; activity change, negative = inhibition: at 114 µM (top of the series)
In short: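 20 mM phosphate pH 7.0 + 0.01% (detergent screen) or 0.0001% Triton X-100; 5.3 nM AmpC reagent; cpd preinc 15 min RT; nitrocefin (800 uM stock) to start; A480 q20 s × 4 min; Activity was normalised to no-enzyme and no-compound control wells.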
Potency is read from the fitted curve at half-maximal effect; tags tell the direction and shape of the fitted curve.

SMILES | Potency | activity change, negative = inhibition
COc1ccc(S(=O)(=O)N(C)CC(=O)NCCC2=CCCCC2)cc1C | inconclusive [inhibitor, partial curve, poor fit] | –
COc1ccc(N2CCN(C(=S)NC(C)c3ccccc3)CC2)cc1 (stereo unspecified) | – | inactive: -3.35%
CCOc1cc(C(=O)N2CCN(C/C=C/c3ccccc3)CC2)cc(OCC)c1OCC | inconclusive [inhibitor, full curve, poor fit] | –
COc1ccc(N(C(=O)c2ccccc2OC(C)=O)C(C)C2CC2)cc1 (stereo unspecified) | – | inactive: -7.74%
COc1ccc2nc(Sc3c([N+](=O)[O-])nc(C)n3Cc3ccccc3)[nH]c2c1 | inconclusive [inhibitor, full curve, poor fit] | –
Cc1cc(C(=O)N/N=C/c2cc(Br)cc(Br)c2OC(=O)c2cccc(F)c2)n[nH]1 | inconclusive [inhibitor, partial curve, poor fit] | –
CCc1ccc(C2N3CC4([N+](=O)[O-])CN2CC([N+](=O)[O-])(C3)C4(C)C)cc1 (stereo unspecified) | inconclusive [inhibitor, partial curve] | –
O=C(Nc1ccc2nn(-c3ccccc3)nc2c1)c1ccc2c(c1)OCCO2 | inconclusive [inhibitor, full curve, poor fit] | –
CNC(=O)c1c(NC(=O)CS(=O)(=O)c2ccc(Cl)cc2)sc(C)c1C | inconclusive [inhibitor, full curve, poor fit] | –
CCc1nn2c(=O)cc(COC(=O)c3cccs3)nc2s1 | – | inactive: 19.1%
CCOc1ccc(N2C(=O)CSC23CCCCC3)cc1 | inconclusive [inhibitor, partial curve] | –
O=C(Nc1ccc2oc(-c3ccccc3)nc2c1)c1ccncc1 | inconclusive [inhibitor, full curve, poor fit] | –
Cc1ccc(CN2CCN(/N=C/c3ccc(C(F)(F)F)cc3)CC2)cc1 | inconclusive [inhibitor, partial curve, poor fit] | –
CCCCNS(=O)(=O)c1ccc2nc(-c3cccnc3)cc(C(=O)NCCCN(CC)CC)c2c1 | inconclusive [inhibitor, full curve, poor fit] | –
CCOC(=O)COc1cccc2c(=O)n(CC(=O)NCCc3ccc(OC)c(OC)c3)ccc12 | inconclusive [inhibitor, full curve, poor fit] | –
O=C(Cn1c(=O)n(CC2CCCO2)c(=O)c2ccccc21)c1ccccc1 (stereo unspecified) | inconclusive [inhibitor, full curve] | –
O=c1c2ccccc2nc(CN2CCCCCC2)n1-c1ccc(F)cc1 | inconclusive [inhibitor, full curve, poor fit] | –
CCCc1ccc2oc(C(=O)NCc3nnc(C)o3)c(C)c2c1 | inconclusive [inhibitor, single point] | –
COc1ccc(Cn2c(CCC(=O)Nc3cccc(Cl)c3)nc3cccnc32)cc1 | – | inactive: -9.86%
Cc1ccsc1-c1cc(C(=O)O)c2c(ccc3ccccc32)n1 | inconclusive [inhibitor, partial curve, poor fit] | –
Cc1ccc2c(c1)CCCN2C(=O)c1c(C)noc1C | – | inactive: -1.32%
CCCn1c(N)c(N(CCOC)C(=O)c2ccccc2)c(=O)[nH]c1=O | inconclusive [inhibitor, full curve, poor fit] | –

SMILES | Potency | activity change, negative = inhibition
O=C(CSc1n[nH]c(-c2ccc(S(=O)(=O)N3CCCCC3)cc2)n1)Nc1nccs1 | inconclusive [inhibitor, full curve, poor fit] | –
CCc1cccc2c(=O)c(C(=O)N3CCOCC3)c[nH]c12 | inconclusive [inhibitor, full curve, poor fit] | –
CCOC(=O)Cc1ccc(NC(=O)c2ccccc2Br)cc1 | – | inactive: 1.23%
CCc1cccc(CC)c1NC(=O)C1CN(S(=O)(=O)c2ccccc2)CCN1S(=O)(=O)c1ccccc1 (stereo unspecified) | – | inactive: -13.5%
CN(C)C(=O)c1ccccc1Sc1ccc(Cl)cc1Cl | inconclusive [inhibitor, single point] | –
CCOc1ccc(C2=Nn3c(nnc3-c3cccnc3)SC2)cc1 | inconclusive [inhibitor, full curve] | –
COc1ccc(NS(=O)(=O)c2ccc3c(c2)N(C(C)=O)CCS3)cc1 | inconclusive [inhibitor, partial curve] | –
CCOc1cccc(C(=O)NNC(=O)C2C3C=CC(C3)C2C(=O)O)c1 (stereo unspecified) | – | inactive: 3.99%
Oc1ccc2ccccc2c1C=Nc1ccccc1 | inconclusive [inhibitor, full curve, poor fit] | –
CCN=C1SC(CC(=O)Nc2ccc(C(F)(F)F)cc2)C(=O)N1CC (stereo unspecified) | – | inactive: 1.26%
c1coc(Cn2c(SCc3nc4ccccc4[nH]3)nnc2-c2cccs2)c1 | – | inactive: -13.4%
CC(=O)CSc1nnc(NC(=O)CCc2ccccc2)s1 | inconclusive [inhibitor, full curve, poor fit] | –
COc1ccc(NC(=O)CCSc2nc(C)cs2)cc1 | – | inactive: -7.58%
COc1ccc(Cn2nnc3c(=O)[nH]c(C(=O)NCCc4ccc(F)cc4)nc32)cc1OC | inconclusive [inhibitor, full curve] | –
O=C(Nc1cccc(Cl)c1)Nc1nnc(CSCCOc2ccc(Cl)cc2)s1 | inconclusive [inhibitor, full curve, poor fit] | –
O=C(CC1CC2CCC1C2)N1CCN(S(=O)(=O)c2ccccc2C(F)(F)F)CC1 (stereo unspecified) | – | inactive: -2.23%
COc1cccc(/C=C2\SC(=S)N(N3C(=O)CCCC3=O)C2=O)c1 | inconclusive [inhibitor, single point] | –
O=C(CN1C(=O)NC2(CCCCCC2)C1=O)c1cccs1 | inconclusive [inhibitor, full curve, poor fit] | –
COc1cc(OC)nc(S(C)(=O)=O)n1 | inconclusive [inhibitor, partial curve] | –
Nn1c(SCc2cccc(Br)c2)nnc1-c1cccnc1 | inconclusive [inhibitor, partial curve, poor fit] | –
CCS(=O)(=O)N1CCC(NC(=O)c2ccco2)CC1 | inconclusive [inhibitor, full curve, poor fit] | –
CSc1ccc(S(=O)(=O)N2CCC(C(=O)NCCc3ccccc3)CC2)cc1 | inconclusive [inhibitor, partial curve, poor fit] | –

SMILES | Potency | activity change, negative = inhibition
CC(=O)N1N=C(c2cccc(NS(C)(=O)=O)c2)CC1c1cccs1 (stereo unspecified) | inconclusive [inhibitor, partial curve] | –
Cn1nc(-c2ccc(Cl)cc2)c2cc(C(=O)N3CCN(c4ccccn4)CC3)sc21 | inconclusive [inhibitor, full curve, poor fit] | –
CN(C)C(CNC(=O)c1cccc(S(=O)(=O)Nc2ccc(Br)cc2)c1)c1ccco1 (stereo unspecified) | inconclusive [inhibitor, single point] | –
O=C(Nc1cccc(-c2nc3cc(Cl)ccc3o2)c1)c1ccc(F)cc1 | – | inactive: -0.781%
CC12CN3CC(C)(CN(C1)C3c1cccs1)C2 (stereo unspecified) | inconclusive [inhibitor, full curve, poor fit] | –
COC(=O)c1ccc2c(=O)n(CCCCCC(=O)O)c(=S)[nH]c2c1 | – | inactive: -11.3%
COc1ccc(C)cc1S(=O)(=O)n1c([N+](=O)[O-])cnc1C | inconclusive [inhibitor, full curve, poor fit] | –
Cc1ccc(C(=O)Nc2nccs2)cc1S(=O)(=O)N1CCCCC1 | inconclusive [inhibitor, single point] | –
CN(C)Cc1cc(C(C)(C)C)cc(C(C)(C)C)c1O | – | inactive: 2.97%
Cc1csc(N/N=C/c2ccc([N+](=O)[O-])cc2)n1 | inconclusive [inhibitor, partial curve, poor fit] | –
C=CCn1c(SCC(=O)NCC2CCCO2)nc2scc(-c3ccc(OC)cc3)c2c1=O (stereo unspecified) | – | inactive: 2.43%
C/C(=N\NC(=O)Cc1ccc(F)cc1)c1ccc(F)cc1 | inconclusive [inhibitor, partial curve] | –
CCNC(=S)NNC(=O)c1ccccn1 | inconclusive [inhibitor, full curve, poor fit] | –
CCCCCCOc1ccc(N2C(=O)CC(S/C(N)=N/N=C(\C)c3cccs3)C2=O)cc1 (stereo unspecified) | inconclusive [inhibitor, single point] | –
COc1ccccc1C(=O)CSc1nccn1C | inconclusive [inhibitor, full curve, poor fit] | –
CCOC(=O)c1nnn(CC(=O)N2N=C(c3ccc(Cl)cc3)CC2c2ccc(OC)cc2)c1C(=O)OCC (stereo unspecified) | inconclusive [inhibitor, partial curve, poor fit] | –
CN1C(=O)C(c2ccccc2[N+](=O)[O-])C(=O)c2ccccc21 (stereo unspecified) | inconclusive [inhibitor, partial curve] | –
CCCn1nnnc1-c1cccc(Cl)c1 | inconclusive [inhibitor, full curve, poor fit] | –
Cc1ccc2c(CC(=O)Nc3cccc(S(=O)(=O)N4CCOCC4)c3)coc2c1 | – | inactive: -13.7%
COC(=O)CSc1cc(C)nc(NC(C)=O)n1 | inconclusive [inhibitor, full curve] | –
C/C(=N/NC(=O)c1cccs1)c1ccc(NC(=O)COc2ccc(Cl)cc2)cc1 | inconclusive [inhibitor, partial curve, poor fit] | –
N#CCSc1nc2ccccc2c(=O)n1CCC(=O)NCCc1ccccc1 | inconclusive [inhibitor, full curve, poor fit] | –
